The record followed here is the supplement of paper PMC10126150.

Sequences with one replicate were seen in a single cluster, so their values are uncertain.
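Note: ATP exposure 15 min at 22 °C before imaging.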

The subject of the data set is ATP. Nature of the data set: switch fluorescence ratio, 500 uM ATP over buffer (Cy3 cluster intensity, sum of 5 cycles each) (fold (ratio)); higher = stronger signal-on switching upon ATP binding; sequences stand for … in TCGTCGGCAGCGTCAGATGTGTATAAGAGACAGTTTTTTTTTTTTTTTTTTTTTTTTT…TC. The note with it: aptamer strand: ATP DNA aptamer (quencher-CACCTGGGGGAGTATTGCGGAGGAAGG + anchor), 100 nM annealed; ATP concentration: 500 uM; one replicate. The method in brief:
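The fluorescence ratio divides summed target-cycle Cy3 intensity by summed buffer-cycle Cy3 intensity for each cluster and is averaged per switch-domain sequence. Cy3-labelled switching-strand clusters on a modified Illumina MiSeq flow-cell were annealed to 100 nM quencher-labelled ATP aptamer, then imaged in selection buffer and again after 15 min with 500 uM ATP at 22 °C. Five such cycles were run, with NaOH stripping and re-annealing between them, and clusters outside 100-1000 RFU were excluded.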
As to TATAAGTTTA, the switch fluorescence ratio is 0.978.

As for GGTAGTTTCG, the switch fluorescence ratio is 0.999. Turning to TTTGATGCGG, the switch fluorescence ratio turned out to be 1.02. CAGATGCGCT: the switch fluorescence ratio was determined as 0.969. In the case of AAATTTCAGA, the switch fluorescence ratio was 1.01. Next, GCCAGGAAGG: 0.996; TCGTTCTCTC: 1.01; AGGTGACGAC: 0.959. In the case of CTGCAGATGG, the switch fluorescence ratio is 1.09. With TATTTAGACG, the switch fluorescence ratio was determined as 1.08. Regarding TATTGTCAGG, the switch fluorescence ratio was found to be 0.994.

Consider TATAAACCCA, for which the switch fluorescence ratio stood at 0.988. Regarding AATGAGGAAA, the switch fluorescence ratio was 0.985. On to TCGATTTCGC, for which the switch fluorescence ratio stood at 1.07. GTAATT: the switch fluorescence ratio was found to be 0.971. Next, TTAGTGGAT: 1.02; GCATGAGTAA: 1.01; ACTGCATGGT: 1.07. With CACTTCGGCG, the switch fluorescence ratio came out at 1.08.

Consider ACGTTTTAGC, for which the switch fluorescence ratio was found to be 1.

For the sequence ATATTAGGG, the switch fluorescence ratio amounted to 0.964. The same measure for AGTGGCTGTT: 1.01.

As for TTGAGGGTT, the switch fluorescence ratio is 1.02. The same measure for CACGGCATTT: 1.16. The same measure for CAGACCCTAA: 1.04; for ACGTGAGTTC: 1.01; for ACTGCGGTA: 0.98.

Consider AACTCCTGCA, for which the switch fluorescence ratio came out at 1.97. Turning to TCGCTTGGAA, the switch fluorescence ratio turned out to be 1.01.

In the case of TCAGGATGTC, the switch fluorescence ratio came to 1.11. Next, CGACGTTGCC: 1.22.

In the case of CGCCCATTCC, the switch fluorescence ratio is 1.46. Next, ATTTTGTTGA: 0.987; GAAAGTTTTC: 0.969. AGGGTTAGG: the switch fluorescence ratio was 0.974.

For GAGGCCTGTG, the switch fluorescence ratio amounted to 1.02. As to GAGCGTTCAT, the switch fluorescence ratio came out at 0.981. The same measure for GGCGATCGAC: 0.97. Turning to GTCCGCGTTA, the switch fluorescence ratio is 2.09. Take ACAGGCTGT: the switch fluorescence ratio was determined as 1.01.

With TGGAAGTAG, the switch fluorescence ratio is 0.979. For GCGGGTGCAG, the switch fluorescence ratio is 0.986. With TTCTTTGGTC, the switch fluorescence ratio stood at 1.02.

On to AGGGGCAGTG, for which the switch fluorescence ratio came out at 0.99. The same measure for AGGTGGAGCT: 0.966.

As for CTTGCTGCGT, the switch fluorescence ratio was 1.02. The same measure for GGCTTGAG: 0.981; for ATTCCGCTGT: 3.05.

As for GAAACAACAT, the switch fluorescence ratio was determined as 1.7.

AGGGACAGAT: the switch fluorescence ratio came out at 1.01.

On to GACACAGATC, for which the switch fluorescence ratio was found to be 1.09. On to GATTGGCGA, for which the switch fluorescence ratio came out at 0.97. Next, GGTTGCAGCG: 0.987; ATGCGATATA: 1.08.

Turning to GCTGTGGTTT, the switch fluorescence ratio worked out at 1.04. For AATAGCAG, the switch fluorescence ratio is 1.03. The same measure for CTGAACTAGC: 1.02. The same measure for CCAGAACACT: 1.05. As to CGTGCGGGCT, the switch fluorescence ratio stood at 1.11. In the case of TACCGGCCCG, the switch fluorescence ratio is 1.09.

With AAAGGGCTA, the switch fluorescence ratio turned out to be 1.01. Next, CTCTACAATG: 1.33. The same measure for TAAGGCTA: 0.994. As for GGCTTAGGAT, the switch fluorescence ratio amounted to 0.954. The same measure for AATGGCCCAA: 1.02; for GATGCCTCCA: 1.02; for TGGTCCTCCT: 0.941. For the sequence ATCGTGCGCT, the switch fluorescence ratio came to 0.994. Next, ATTTACTTC: 1.06; GCGCCGCTTC: 1.03; TGCAGGGTCC: 0.96. In the case of GCTTGATTCT, the switch fluorescence ratio is 0.992. Next, TGTGTAGGGA: 1.66; AGGTTCCTAT: 0.991.

Regarding GGGTCTCGCA, the switch fluorescence ratio is 0.992. On to ATACCGATGG, for which the switch fluorescence ratio came to 1.01. Consider TGTCTGACTT, for which the switch fluorescence ratio was found to be 0.996. Take GCTTGGCGGA: the switch fluorescence ratio amounted to 1. As to TGTCGAACGG, the switch fluorescence ratio worked out at 1.02.

ACCTTGGACT: the switch fluorescence ratio was 1.03.

As for GATGAGCACT, the switch fluorescence ratio worked out at 1.05. For CGTTGACAG, the switch fluorescence ratio is 0.991. Next, TCGGGGGACA: 0.996; GGTTTGCCGG: 1. Next, TGATTCGATC: 0.928; CATAATGGC: 0.983. ATCGTTACTT: the switch fluorescence ratio turned out to be 0.973. As to ATGTCCGCAC, the switch fluorescence ratio worked out at 3.31.

In the case of CCATGAATGT, the switch fluorescence ratio stood at 1.03. The same measure for TGAGACAATT: 0.971; for CGATAAGGTG: 1.3; for CGGTTGAAAG: 0.966. The same measure for TAGGAATAGG: 1.02; for CCCTGCGGTC: 2.62. Consider ACTCTAGGGG, for which the switch fluorescence ratio amounted to 1.13.

As for TCCTGTCTAA, the switch fluorescence ratio worked out at 0.995. Next, AACCCTTGCG: 1.07; TAGATGGTCC: 1.04.

Consider CATGTACCGT, for which the switch fluorescence ratio turned out to be 1.06. The same measure for TTTCCAATTG: 1.02; for GGAGTCGATC: 1.09; for TCCAAAAACC: 1.09. Next, TCCGTGGGTC: 1.23. Next, CTTCCTCCGG: 2.44. AGGAATCGAG: the switch fluorescence ratio is 0.978. Consider TACGAGGAAA, for which the switch fluorescence ratio came to 1.03. Next, ACATTTTATA: 1.03. For the sequence CCATTTAGAT, the switch fluorescence ratio came out at 1.03.

On to GCCGCGGTAT, for which the switch fluorescence ratio stood at 1.18.

As to CGTTGAATG, the switch fluorescence ratio is 0.999. For GGCGGTACTT, the switch fluorescence ratio amounted to 1.04.

With TACACATACA, the switch fluorescence ratio came out at 1.34.

Regarding ATACAAACAC, the switch fluorescence ratio was found to be 1.33. The same measure for ATGTACTTTG: 1.09. Next, GTGACTTTTG: 1.

With TATACCTCG, the switch fluorescence ratio was 1.02. On to TCTGGGGCAG, for which the switch fluorescence ratio amounted to 0.954.

In the case of AAAAGTAGCT, the switch fluorescence ratio was 1.01. The same measure for TGCGAGTCGC: 0.991. On to GTTTGCATGG, for which the switch fluorescence ratio came out at 0.988. The same measure for TTCCGTATGT: 1.02.
